Results taken from ChEMBL document CHEMBL5606460, “ASAP - DENV-2 NS2B-NS3 protease fluorescence single point” (2024).
The whole screen tested about 2,000 compounds, of which about 110 (5.5%) showed an effect of 50% or more. This is one part of the list.

Target: Genome polyprotein (dengue virus type 2) (UniProt P29990)
[1] = Thailand/16681/1984, Concentration 25.0 uM, Number of replicates 1.0

## COc1cc(-c2ccccc2C(=O)Nc2cnn(C)c2)ccc1O
Thailand/16681/1984, Concentration 49.5 uM, Number of replicates 2.0, Standard deviation 2.595283339618205 %
  inhibition: -1.47%
Thailand/16681/1984, Concentration 99.01 uM, Number of replicates 2.0, Standard deviation 3.3571879148786463 %
  inhibition: -0.48%
Thailand/16681/1984, Concentration 198.0 uM, Number of replicates 2.0, Standard deviation 1.6165328547159332 %
  inhibition: 1.19%

## NC[C@H]1C[C@H](NC(=O)[C@@H](NC(=O)OCc2ccccc2)c2ccc(OCc3ccccc3)cc2)C1
Thailand/16681/1984, Concentration 49.5 uM, Number of replicates 2.0, Standard deviation 3.3178745989931393 %
  inhibition: -6.14%
Thailand/16681/1984, Concentration 99.01 uM, Number of replicates 2.0, Standard deviation 3.966106616082213 %
  inhibition: -5.08%
Thailand/16681/1984, Concentration 198.0 uM, Number of replicates 2.0, Standard deviation 2.362147520244588 %
  inhibition: 2.97%

## O=Cc1ccc(N2CCC(C(=O)NCc3cc(F)cc(Cl)c3)CC2)cc1
[1]
  inhibition: 10.1%

## O=C(c1cc(Cl)ccc1NS(=O)(=O)c1ccc(Oc2ccccc2Cl)cc1)N1CCCC1
Thailand/16681/1984, Concentration 49.5 uM, Number of replicates 2.0, Standard deviation 0.3065647121254482 %
  inhibition: 37.4%
Thailand/16681/1984, Concentration 99.01 uM, Number of replicates 2.0, Standard deviation 0.3046576515240273 %
  inhibition: 55.4%
Thailand/16681/1984, Concentration 198.0 uM, Number of replicates 2.0, Standard deviation 0.40716687929743567 %
  inhibition: 69%

## Cc1cc(CO)c2cccc(Cc3cccc(C(=O)N[C@H]4C[C@@H](O)C4)c3)c2n1
Thailand/16681/1984, Concentration 49.95 uM, Number of replicates 2.0, Standard deviation 0.3715430142368757 %
  inhibition: 6.97%
Thailand/16681/1984, Concentration 99.9 uM, Number of replicates 2.0, Standard deviation 0.8666943057865014 %
  inhibition: 29.2%

## Cn1cc(CNC(=O)c2ccccc2CN)cn1
Thailand/16681/1984, Concentration 49.5 uM, Number of replicates 2.0, Standard deviation 4.704758964680012 %
  inhibition: -1.53%
Thailand/16681/1984, Concentration 99.01 uM, Number of replicates 2.0, Standard deviation 3.3738585950449482 %
  inhibition: -6.84%
Thailand/16681/1984, Concentration 198.0 uM, Number of replicates 2.0, Standard deviation 1.4794083306984744 %
  inhibition: -5.39%

## O=C(Cc1c[nH]c2cnccc12)N1CC[C@H](c2c[nH]c3ccccc23)C1
Thailand/16681/1984, Concentration 49.5 uM, Number of replicates 2.0, Standard deviation 0.795046349191922 %
  inhibition: 1.23%
Thailand/16681/1984, Concentration 99.01 uM, Number of replicates 2.0, Standard deviation 0.6425272725557302 %
  inhibition: 2.08%
Thailand/16681/1984, Concentration 198.0 uM, Number of replicates 2.0, Standard deviation 0.5377573721218945 %
  inhibition: 4.32%

## O=Cc1ccc(N2CCC(C(=O)N[C@@H](CO)Cc3ccccc3)CC2)cc1
[1]
  inhibition: 15.5%

## Cc1ccc(CN(CCN(C)C)C(=O)C2CCN(c3ccc(C=O)cc3)CC2)s1
[1]
  inhibition: 13.2%

## Cc1cc(CO)c2cccc(Cc3ccccc3NC(=O)[C@@H](N)CC(N)=O)c2n1
Thailand/16681/1984, Concentration 49.95 uM, Number of replicates 2.0, Standard deviation 0.9388389208439332 %
  inhibition: 28.9%
Thailand/16681/1984, Concentration 99.9 uM, Number of replicates 2.0, Standard deviation 1.1783962129832455 %
  inhibition: 59.7%

## CCCCN(Cc1ccc(F)cc1)C(=O)C1CCN(c2ccc(C=O)cc2)CC1
[1]
  inhibition: 16.4%

## O=S(=O)(c1ccc(Oc2ccccc2Cl)cc1)N1CCc2[nH]c3ccc(Cl)cc3c2C1
Thailand/16681/1984, Concentration 49.5 uM, Number of replicates 2.0, Standard deviation 1.0628105882845442 %
  inhibition: 0.501%
Thailand/16681/1984, Concentration 99.01 uM, Number of replicates 2.0, Standard deviation 1.9343048300605572 %
  inhibition: 3.48%
Thailand/16681/1984, Concentration 198.0 uM, Number of replicates 2.0, Standard deviation 0.8704625712181634 %
  inhibition: 8.23%

## Cc1cc(CO)c2cccc(Cc3ccccc3C(=O)Nc3cccc(C(N)=O)c3)c2n1
Thailand/16681/1984, Concentration 49.95 uM, Number of replicates 2.0, Standard deviation 0.1803817681308647 %
  inhibition: 4.23%
Thailand/16681/1984, Concentration 99.9 uM, Number of replicates 2.0, Standard deviation 0.18828716821235608 %
  inhibition: 9.06%

## O=Cc1ccc(N2CCC(C(=O)Nc3ccc(Br)c(Cl)c3Cl)CC2)cc1
[1]
  inhibition: 11.4%

## Cc1cc(C(N)=O)c2cccc(Cl)c2n1
Thailand/16681/1984, Concentration 49.95 uM, Number of replicates 2.0, Standard deviation 7.126306314460823 %
  inhibition: -2.36%
Thailand/16681/1984, Concentration 99.9 uM, Number of replicates 2.0, Standard deviation 6.288884680839078 %
  inhibition: 0.295%

## CN(C)Cc1cccc(C(=O)Nc2cc(Cl)cc(C(=O)NC(C)(C)CO)c2)c1
Thailand/16681/1984, Concentration 49.5 uM, Number of replicates 2.0, Standard deviation 3.5461007109102978 %
  inhibition: -1.4%
Thailand/16681/1984, Concentration 99.01 uM, Number of replicates 2.0, Standard deviation 3.950653726956785 %
  inhibition: -0.545%
Thailand/16681/1984, Concentration 198.0 uM, Number of replicates 2.0, Standard deviation 4.3168300986790715 %
  inhibition: 0.264%

## CN(Cc1nc2ccsc2c(=O)[nH]1)C(=O)C1CCN(c2ccc(C=O)cc2)CC1
[1]
  inhibition: 11.8%

## O=Cc1ccc(N2CCC(C(=O)N[C@H](c3ccccc3)c3ccco3)CC2)cc1
[1]
  inhibition: 10.1%

## c1ccc2c([C@H]3CCN(CC4CCOCC4)C3)c[nH]c2c1
Thailand/16681/1984, Concentration 49.5 uM, Number of replicates 2.0, Standard deviation 3.3259684587077474 %
  inhibition: -2.08%
Thailand/16681/1984, Concentration 99.01 uM, Number of replicates 2.0, Standard deviation 2.8143910019334557 %
  inhibition: -1.51%
Thailand/16681/1984, Concentration 198.0 uM, Number of replicates 2.0, Standard deviation 3.0084374948479766 %
  inhibition: -0.345%

## O=Cc1ccc(N2CCC(C(=O)NC3CN(C(c4ccccc4)c4ccccc4)C3)CC2)cc1
[1]
  inhibition: 2.62%

## CCCC[C@H](NC(C)=O)C(=O)N[C@H](C(=O)NCc1ccc(C(N)=O)cc1)c1ccc(OCc2ccccc2)cc1
Thailand/16681/1984, Concentration 49.5 uM, Number of replicates 2.0, Standard deviation 4.54767597440597 %
  inhibition: 18.2%
Thailand/16681/1984, Concentration 99.01 uM, Number of replicates 2.0, Standard deviation 0.08657569598756192 %
  inhibition: 99.9%
Thailand/16681/1984, Concentration 198.0 uM, Number of replicates 2.0, Standard deviation 0.08274539039489186 %
  inhibition: 99.7%
